Data as given in the RNAGym collection of RNA variant scans (doi:10.1093/nar/gkz1192).
The source gives no read counts; variants with many changes may rest on few reads.

B1: CPEB3 Ribozyme (parent)
chain: UAACAGGGGGCCACAGCAGAAGCGUUCACGUCGCAGCCCCUGUCAGAUUCUGGUGAAUCUGCGAAUUCUGCUGUAUAUCUC

Variants of: B1
Experiment: self-cleavage, relative activity (ratio to wild type); higher = more cleavage; in vitro, sequencing
Procedure, shortened: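 For each CPEB3 ribozyme variant, relative activity is its cleaved/total read fraction divided by the unmutated ribozyme's. Barcoded error-prone PCR libraries were transcribed by T7 RNA polymerase (5 hours, 37°C) and held in DNase I for 15 min before an EDTA stop, with cleavage occurring throughout. Template-switching reverse transcription and Illumina sequencing were used to read the RNAs. A 5-read minimum applied, and results are the mean of three batches.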
With A15U A20G A21G U69A U78C the self-cleavage was 0.16.
A15U A20G G36U U48C showed a self-cleavage of 0.1.
A15U C23A U54G showed a self-cleavage of 0.17.
For A15U A20G A35G U41C U67C, the self-cleavage was 1.14.
In the case of A15G U78A U80C, the self-cleavage is reported as 1.05.
With A15U A65U U72C the self-cleavage was 0.36.
A15U C23U G36A A57G U67C showed a self-cleavage of 0.09.
For A15U A18C A28G U41C U66C U76C U80A, the self-cleavage was 0.18.
A15U A45U A57G A64G U69C gave a self-cleavage of 0.19.
A15U C27A U41C U54C showed a self-cleavage of 0.13.
A15U A18U A77U showed a self-cleavage of 0.31.
A15U A18U U72G U74C A75U showed a self-cleavage of 0.07.
Work on A15U A28U U49C yielded a self-cleavage of 0.41.
With A15G U69C U72A the self-cleavage was 0.36.
Work on A15U A28G U60C G61A U76G yielded a self-cleavage of 0.09.
A15U A35U U41C A45G U72C gave a self-cleavage of 0.43.
Work on A15U A28U C39U U43A A64U yielded a self-cleavage of 0.08.
Work on A15U A35G U48A U60G yielded a self-cleavage of 0.21.
In the case of A15U C29U G36A A65G, the self-cleavage is reported as 0.33.
In the case of A15U A18U U43C A45G, the self-cleavage is reported as 0.22.
A15U A20G G24U U43C U49A U69C showed a self-cleavage of 0.1.
Variant A15U A45G A56C A57G U74A has a self-cleavage of 0.
Work on A15G U60C U66A yielded a self-cleavage of 0.22.
A15U A47U A64U U72A gave a self-cleavage of 0.14.
A15G U67C U80A showed a self-cleavage of 0.46.
In the case of A15U A28G U60A U78A, the self-cleavage is reported as 0.08.
Work on A15U A20U A35U U43C U60A yielded a self-cleavage of 0.14.
Work on A15U A18G U41G C44U A45U A57G yielded a self-cleavage of 0.08.
In the case of A15U A20U U26C A75U, the self-cleavage is reported as 0.23.
For A15U A18G A47U U72A, the self-cleavage was 0.08.
With A15U A28U A47U C62U A65G the self-cleavage was 0.16.
For A15U A28G A64G, the self-cleavage was 0.15.
For A15U A20G A75U, the self-cleavage was 0.48.
Variant A15U A28U C29U U43A U60G has a self-cleavage of 0.07.
A15G U69A U78C showed a self-cleavage of 0.34.
A15U A20G A28G U41C A45U G55U showed a self-cleavage of 0.12.
Work on A15U A21G A45U U66C U69A yielded a self-cleavage of 0.06.
For A15U A18U U26C A65G, the self-cleavage was 0.19.
Work on A15U A20U U69C U78C yielded a self-cleavage of 0.06.
For A15U A20G A35U U72C, the self-cleavage was 0.47.
For A15G U60A A65G, the self-cleavage was 0.39.
A15U A56U U58C U66C U72A U74A gave a self-cleavage of 0.14.
Variant A15U A20U U31A U67C has a self-cleavage of 0.34.
A15U A20U C38A A56G C62U showed a self-cleavage of 0.05.
In the case of A15U A18U A45G U74G A77U, the self-cleavage is reported as 0.18.
For A15U A21G U31C, the self-cleavage was 0.17.
A15U A47U U69C showed a self-cleavage of 0.14.
For A15U A21G A57G U60C A64C, the self-cleavage was 0.15.
Work on A15U A28G U43C yielded a self-cleavage of 0.08.
A15U A18U U41C U60C G61U C81A gave a self-cleavage of 0.16.
A15U A18U U41C U67C gave a self-cleavage of 0.13.
For A15U A21G U69C, the self-cleavage was 0.17.
For A15U A21G A57G, the self-cleavage was 0.18.
For A15U A18G A56C U60C, the self-cleavage was 0.07.
A15U C32A A35G C40U showed a self-cleavage of 0.08.
Variant A15U A20U U25C has a self-cleavage of 0.36.
In the case of A15U A18G A20G C23U A45U A56G U80C, the self-cleavage is reported as 0.06.
Variant A15U A18G U48C C71U has a self-cleavage of 0.1.
In the case of A15U C32U U48C, the self-cleavage is reported as 0.09.
A15U A21G U54A U76A A77U gave a self-cleavage of 0.28.
Variant A15U A47U G73C U78A has a self-cleavage of 0.61.
For A15U A28U A64G U80A, the self-cleavage was 0.36.
A15U A21C U60C A75U showed a self-cleavage of 0.11.
Variant A15U A20G A65G U80A has a self-cleavage of 0.42.
For A15U A21U A56G, the self-cleavage was 0.36.
In the case of A15U A21G G24U U48G U54C A77G, the self-cleavage is reported as 0.03.
In the case of A15U A21G A28G G33A A45G, the self-cleavage is reported as 0.33.
Variant A15U C17U C34U U49C C50U A65G U78A has a self-cleavage of 0.04.
Variant A15U A20G U41A U49C C62A has a self-cleavage of 0.21.
With A15U A18G A45G U69C U78C the self-cleavage was 0.73.
Variant A15U A45G A47G U72A has a self-cleavage of 0.17.
A15U A47U U51C U66C showed a self-cleavage of 0.11.
Work on A15U C27U C29U G33C C38U A65G U76C yielded a self-cleavage of 0.03.
A15U A18G C38U A56C C59A showed a self-cleavage of 0.07.
In the case of A15U C17A U41A G42A U76C, the self-cleavage is reported as 0.37.
A15U A21U A35G U49C U67C gave a self-cleavage of 0.11.
A15G U66C U78C showed a self-cleavage of 0.29.
A15U A20G U51A U58C showed a self-cleavage of 0.19.
A15U A21G C23U showed a self-cleavage of 0.16.
Work on A15U A20G U41A U43C yielded a self-cleavage of 0.42.
In the case of A15U C27U C37A, the self-cleavage is reported as 0.1.
Variant A15U A21G U43C has a self-cleavage of 0.53.
A15U A18G U58C U72G U74C showed a self-cleavage of 0.07.
In the case of A15U A21G A28C C44U U58C U67C A77U, the self-cleavage is reported as 0.05.
